Data on 153 variants can be found in a collection of fitness landscapes (doi:10.1126/science.1257360).

Sequences and labels used below:
B1: PhoQ; a variant is named by its letters at X, in order, P23837 (parent)
chain: MKKLLRLFFPLSLRVRFLLATAAVVLVLSLAYGMVALIGYSVSFDKTTFRLLRGESNLFYTLAKWENNKLHVELPENIDKQSPTMTLIYDENGQLLWAQRDVPWLMKMIQPDWLKSNGFHEIEADVNDTSLLLSGDHSIQQQLQEVREDDDDAEMTHSVAVNVYPATSRMPKLTIVVVDTIPVELKSSYMVWSWFIYVLSANLLLVIPLLWVAAWWSLRPIEALAKEVRELEEHNRELLNPATTRELTSLVRNLNRLLKSERERYDKYRTTLTDLTHSLKTPLXXLQXXLRSLRSEKMSVSDAEPVMLEQISRISQQIGYYLHRASMRGGTLLSRELHPVAPLLDNLTSALNKVYQRKGVNISLDISPEISFVGEQNDFVEVMGNVLDNACKYCLEFVEISARQTDEHLYIVVEDDGPGIPLSKREVIFDRGQRVDTLRPGQGVGLAVAREITEQYEGKIVAGESMLGGARMEVIFGRQHSAPKDE

This is one part of the list.

Variants of B1 are the subject of the experiment. The experiment can be described thus: enrichment ratio after two sorts for PhoP signalling (ratio (wild type AVST 3.29)); higher = more functional. The note with it: with PhoP (E. coli).
In the case of YNPG, the enrichment ratio was not above 0.25.
As for RKPF, the figure is not above 0.25.
Then FVNI, with not above 0.25; and LQCH, with not above 0.25; and YNGH, with 0.32.
Then GMAW, with not above 0.25; and RNHQ, with not above 0.25; and NCPL, with not above 0.25.
On to WFDG, for which the enrichment ratio was not above 0.25.
As for VKDK, the figure is not above 0.25.
Then KSTT, with not above 0.25.
As for HMAT, the figure is not above 0.25; as for MNSS, 0.46; as for WGVH, not above 0.25.
Regarding DLAY, the enrichment ratio is not above 0.25.
As for ICCN, the figure is not above 0.25.
Then DDNC, with not above 0.25; and QYPK, with not above 0.25.
Then SQFK, with not above 0.25; and RMMW, with not above 0.25.
On to IQCQ, for which the enrichment ratio was not above 0.25.
For the variant NLYV, the enrichment ratio is not above 0.25.
As for IHAE, the figure is not above 0.25.
Then YLCI, with not above 0.25; and FNNS, with not above 0.25; and SQWH, with not above 0.25.
As for NAGT, the figure is not above 0.25; as for DGTK, not above 0.25; as for TMDY, not above 0.25.
Take NSMW: the enrichment ratio is not above 0.25.
For the variant MHKP, the enrichment ratio was not above 0.25.
Then SEIW, with 1.6; and SERH, with not above 0.25; and MNWI, with 6.11.
As for HQPE, the figure is not above 0.25.
Then WSQD, with not above 0.25; and GGMV, with 5; and SEKC, with not above 0.25.
On to IEFW, for which the enrichment ratio was not above 0.25.
Take MRWM: the enrichment ratio was not above 0.25.
For the variant NKHM, the enrichment ratio is not above 0.25.
With MMVY, the enrichment ratio was 4.88.
As for NKGQ, the figure is not above 0.25.
With QADV, the enrichment ratio was found to be 6.54.
As for ARPD, the figure is not above 0.25.
As to QTYE, the enrichment ratio is not above 0.25.
Take MGWF: the enrichment ratio stood at 2.17.
As for ESAH, the enrichment ratio was not above 0.25.
KWCS: the enrichment ratio is not above 0.25.
Then PYGH, with not above 0.25; and RGTE, with not above 0.25.
Regarding AGPA, the enrichment ratio is not above 0.25.
Then SWHM, with not above 0.25; and KMGY, with not above 0.25.
As for SLHW, the figure is not above 0.25; as for MHSM, not above 0.25; as for SMTC, 8.15.
Regarding MEWR, the enrichment ratio is not above 0.25.
As for MHLS, the figure is not above 0.25; as for PMEK, not above 0.25; as for KHNS, not above 0.25.
As to EDTW, the enrichment ratio was not above 0.25.
Consider IIMW, for which the enrichment ratio is not above 0.25.
Then NVSI, with not above 0.25.
Then SWGE, with not above 0.25; and IQYD, with not above 0.25; and TTWI, with 9.7.
With KKYL, the enrichment ratio is not above 0.25.
Then AHAF, with not above 0.25.
Then PNRH, with not above 0.25; and HVHF, with not above 0.25.
As to LAPS, the enrichment ratio is not above 0.25.
For the variant DDSL, the enrichment ratio is not above 0.25.
As for TDRG, the figure is not above 0.25; as for YPVF, not above 0.25.
Take AFFD: the enrichment ratio was not above 0.25.
As for PWHV, the figure is not above 0.25; as for KTES, not above 0.25; as for NVKD, not above 0.25.
As for LTFM, the figure is not above 0.25.
Regarding HIFP, the enrichment ratio is not above 0.25.
Then YDYI, with not above 0.25.
In the case of QFTD, the enrichment ratio was not above 0.25.
Then RIVF, with not above 0.25; and DMCV, with not above 0.25.
Then ADSP, with not above 0.25; and NPHP, with not above 0.25.
As for NYAF, the enrichment ratio is not above 0.25.
As for ECMG, the enrichment ratio is not above 0.25.
As for YCFN, the figure is not above 0.25; as for WVAR, not above 0.25.
As for GEVT, the figure is 9.41; as for WAQH, not above 0.25.
As for KRFK, the figure is not above 0.25; as for KGEF, not above 0.25.
As to AVLS, the enrichment ratio stood at 6.77.
Then FIQY, with not above 0.25; and DDHC, with not above 0.25.
As for QDLG, the figure is not above 0.25; as for YLTK, not above 0.25.
As for LFSQ, the figure is not above 0.25.
As for HHKP, the enrichment ratio was not above 0.25.
Regarding RSTV, the enrichment ratio is not above 0.25.
As for LDVI, the figure is not above 0.25.
Then YWVI, with not above 0.25; and EEVV, with not above 0.25.
Turning to PAVD, the enrichment ratio was not above 0.25.
Turning to QLWK, the enrichment ratio is not above 0.25.
On to NSHQ, for which the enrichment ratio is not above 0.25.
As for HNGP, the figure is not above 0.25; as for GQGA, not above 0.25.
As for PVLI, the figure is not above 0.25.
As for FNHH, the enrichment ratio is not above 0.25.
Take PGTA: the enrichment ratio was not above 0.25.
As for LEEK, the enrichment ratio was not above 0.25.
Then QTCQ, with not above 0.25.
Turning to DASK, the enrichment ratio is not above 0.25.
As for GKSS, the figure is not above 0.25; as for EPHV, not above 0.25; as for EMYI, not above 0.25.
Turning to HKRF, the enrichment ratio was not above 0.25.
As for YEEW, the figure is not above 0.25; as for STHP, not above 0.25.
For the variant MPIE, the enrichment ratio is not above 0.25.
As for TQHM, the figure is 1.49.
As for WDEF, the figure is not above 0.25.
Regarding FRGK, the enrichment ratio was not above 0.25.
With HMTA, the enrichment ratio is not above 0.25.
Regarding LHYS, the enrichment ratio is not above 0.25.
As for IQTL, the figure is not above 0.25; as for YEEP, not above 0.25; as for MMPI, not above 0.25.
Then CRFC, with not above 0.25; and IPGA, with not above 0.25; and HLWE, with not above 0.25.
Then SMWQ, with not above 0.25; and QRSL, with not above 0.25; and EYQM, with not above 0.25.
For the variant VDMH, the enrichment ratio was not above 0.25.
As for PLFN, the figure is not above 0.25.
As for NYDN, the figure is not above 0.25.
Then DCPM, with not above 0.25; and CLLI, with 11.
SLSN: the enrichment ratio was 8.45.
As for PTNS, the figure is not above 0.25; as for PNYA, not above 0.25; as for VHLW, not above 0.25.
As for VDFV, the figure is not above 0.25.
Then KCDV, with not above 0.25.
On to DSRM, for which the enrichment ratio is not above 0.25.
As for RMKH, the figure is not above 0.25; as for VTDE, not above 0.25.
With LYAK, the enrichment ratio was not above 0.25.
